From PubChem BioAssay AID256 (DTP/NCI, 2004)
Inconclusive results and toxic doses are left out. Not every entry of the source has a single result; some have several. They are shown here; other results are not. The source may hold further records. Values given together differ, and nothing given here explains why; they may come from other doses, times, organisms or constructs than stated.

System: CD2F1 mice, L1210 leukemia ip, survival T/C
Test: NCI In Vivo Anticancer Drug Screen. Data for tumor model L1210 Leukemia (intraperitoneal) in CD2F1 (CDF1) mice
Conditions: endpoint: median survival time; dose: 4.0 mg/kg/injection; schedule: Q04DX003 (ip); vehicle: other; higher = longer survival
Summary of the method: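 Compound-dosed mice with transplantable tumor versus matched vehicle controls; endpoint ratio T/C reported.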

COc1cc(NS(C)(=O)=O)ccc1Nc1c2ccccc2nc2ccccc12
T/C: 118 % of control and 150 % of control
